# Hit rate of the full screen: of about 48,000 compounds, about 1,200 (2.5%) were called active. About 2% were inconclusive and are not listed.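 Rule for the calls: active = activation of at least 60% and not above a set upper limit (about 1 call in 100 departs from these limits); inconclusive = activation of 40% to 60%, or above that upper limit; inactive = activation under 40%.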 This is one part of the list.
# Target: Probable G-protein coupled receptor 32 (Homo sapiens) (UniProt O75388)
# Assay: qHTS for Agonists of Human Resolvin D1 Receptor DRV1; note: 0% is about no effect
# Conditions: CHO-K1 GPR32 beta-arrestin PathHunter luminescence, 90 min; at 76.9 µM; active compounds read high; zero percent set by DMSO-only wells
# Outline: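 Using DMSO wells as EC0, agonist-induced signal was taken as chemiluminescence from beta-Gal reconstituted upon beta-arrestin recruitment to GPR32 in CHO-K1 cells after 90 min compound treatment.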
# UniProt O75388, sequence (O75388 whole entry, looked up): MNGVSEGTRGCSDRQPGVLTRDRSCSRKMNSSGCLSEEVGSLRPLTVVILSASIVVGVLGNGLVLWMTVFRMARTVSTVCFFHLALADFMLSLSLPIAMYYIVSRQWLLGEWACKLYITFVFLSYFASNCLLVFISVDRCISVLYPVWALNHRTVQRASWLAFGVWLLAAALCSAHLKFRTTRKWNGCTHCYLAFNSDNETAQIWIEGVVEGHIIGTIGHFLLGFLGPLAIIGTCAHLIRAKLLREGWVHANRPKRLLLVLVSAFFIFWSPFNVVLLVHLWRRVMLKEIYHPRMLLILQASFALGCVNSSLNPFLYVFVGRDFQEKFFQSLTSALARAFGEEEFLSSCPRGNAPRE
row,SMILES,activation
1,COc1ccc(OC)c(NC(=O)c2ccc(-c3nc(CSc4ccccc4)c(C)o3)cc2)c1,inactive: 5.81%
2,CC(C)(C)C(=O)Cn1c(=O)n(CCCCCC(=O)NCc2ccc3c(c2)OCO3)c(=O)c2sccc21,inactive: -28%
3,Cc1ccc(C(=O)CSc2nc3cc(C(=O)NC4CCCC4)ccc3c(=O)n2CC2CCCO2)cc1 (stereo unspecified),inactive: -28.2%
4,COc1ccccc1CCNC(=O)c1ccc(NC(=O)N2CC(C)Sc3ccccc32)cc1 (stereo unspecified),inactive: -19%
5,CCCCn1cc(S(=O)(=O)c2ccc(CC)cc2)c(=O)c2cc(F)c(N3CCCC(C)C3)cc21 (stereo unspecified),inactive: -0.0605%
6,CSc1cccc(NS(=O)(=O)c2ccc3[nH]cc(C(=O)N4CCCC4)c(=O)c3c2)c1,inactive: -1.67%
7,COc1cc(OC)c(NC(=O)c2c(C)nn(-c3ccc(C)cc3)c2-n2cccc2)cc1Cl,inactive: -8.84%
8,Cn1c(=O)n(C)c2cc(N3CCCCC3)c(NC(=O)c3ccc(Cl)cc3)cc21,inactive: 2.35%
9,COc1ccc(C(=O)NCCn2cc(SCC(=O)Nc3ccccc3)c3ccccc32)cc1OC,inactive: 30.8%
10,CN1CCc2ccccc2Cc2[nH]c3ccccc3c2CC1,inactive: -14.2%
11,Cc1cc(C)c(S(=O)(=O)Nc2cc(-c3cn4ccccc4n3)ccc2C)cc1C,inactive: 13.6%
12,CCN1CCN(C(=O)c2ccc3c(c2)N(Cc2ccc(Cl)cc2)C(=O)c2ccccc2S3(=O)=O)CC1,inactive: -9.64%
13,Cc1cc(=O)n2c(C(=O)Nc3ccc(C)c(Cl)c3)c(C(=O)Nc3ccccc3)sc2n1,inactive: -0.17%
14,COc1ccc(C(=O)N(Cc2sccc2C)C2CCS(=O)(=O)C2)cc1Cl (stereo unspecified),inactive: -19.2%
15,O=C(O)CCC(=O)N1CCCC1C(=O)O (stereo unspecified),inactive: -9.71%
16,Cc1cccc(N2CCN(C(=O)C3CCN(S(=O)(=O)c4c(C)noc4/C=C/c4ccccc4F)CC3)CC2)c1C,inactive: -4.58%
17,O=C(Cn1ncc2c([nH]c3ccccc32)c1=O)Nc1cc(F)ccc1F,inactive: -12.2%
18,Cc1ccc(C(=O)c2sc(Nc3ccccc3F)c(S(=O)(=O)c3ccccc3)c2N)c(C)c1,inactive: -21.9%
19,O=C(NCc1ccc2c(c1)OCO2)c1ccc2c(c1)N(Cc1cccc(Cl)c1)C(=O)c1ccccc1S2,inactive: -26.5%
20,COc1c(Cl)cc(C(=O)Nc2cccc(-c3nc4ccccc4[nH]3)c2)cc1Cl,active: 106%
21,CC(=O)c1ccc(NC2=NS(=O)(=O)c3ccccc32)cc1,inactive: -11.8%

row,SMILES,activation
1,O=C(Nc1nnc(S(=O)(=O)N2CCCCCC2)s1)c1ccc(Br)cc1,inactive: 18.4%
2,CCOC(=O)c1c(Nc2cccc(O)c2)nnc(-c2ccccc2)c1-c1ccccc1,inactive: 1.79%
3,O=C(NCc1ccc(F)cc1)c1ccc(CSc2nc3ccncc3n2Cc2ccc(F)cc2)cc1,inactive: -17.2%
4,Cc1cc(C)c(Cn2c3ccccc3c3cnn(CC(=O)NCCc4ccccc4)c(=O)c32)c(C)c1,inactive: -23.1%
5,Cc1ccc(Cl)cc1N1CCN(C(=O)CN2C(=O)COc3ccc(S(=O)(=O)N4CCOCC4)cc32)CC1,inactive: -7.15%
6,CCc1cccc(C)c1NS(=O)(=O)c1c(C(=O)N2CCCCCC2)c(C)n(C)c1C,inactive: -23.8%
7,COc1ccc(Cl)cc1NC(=O)Cn1nnc2sc3c(c2c1=O)CCC(C(C)(C)C)C3 (stereo unspecified),inactive: -7.3%
8,COc1cc(Cl)c(C)cc1NC(=O)CCCN1C(=O)C(c2ccccc2)Oc2cccnc21 (stereo unspecified),inactive: -5.5%
9,COCCNC(=O)Cn1c(=O)n(Cc2ccc(C(=O)NCCc3ccc(OC)c(OC)c3)cc2)c(=O)c2ccccc21,inactive: 5.55%
10,O=C(CSc1nc2ccccc2nc1Cc1ccc(F)cc1)Nc1ccc2c(c1)OCO2,inactive: -5.61%
11,COc1ccc(-n2c3c(c(=O)[nH]c2=O)C(NC(C)=O)(C(F)(F)F)C(=O)N3)cc1 (stereo unspecified),inactive: 5.45%
12,Cc1cccc(Oc2nc3ccccn3c(=O)c2/C=C(\C#N)c2nc3ccccc3s2)c1C,inactive: 13.3%
13,COc1ccc(NC(=O)C2CCCN(S(=O)(=O)c3cn(C)cn3)C2)cc1Cl (stereo unspecified),inactive: -5.01%
14,CCOc1ccccc1C1CC(=O)NC(C)=C1C(=O)OC1CCCCCC1 (stereo unspecified),inactive: 39.2%
15,Cc1ccc(NC(=O)CSc2nccn2C2CCCC2)cc1,inactive: -10%
16,COc1ccc(CCNC(=O)c2ccc3c(c2)CCN3S(=O)(=O)c2ccc(Cl)cc2)cc1,inactive: -4.14%
17,O=C(NCCN1CCN(c2ccccc2F)CC1)C1COc2ccccc2C1 (stereo unspecified),inactive: -11%
18,CC(C)Cn1c(=O)c2sccc2n2c(CCCC(=O)NCC(C)c3ccccc3)nnc12 (stereo unspecified),inactive: 11.8%
19,COc1cccc(-c2ccc3c(N)c(C(=O)Nc4ccc(Cl)cc4F)sc3n2)c1,inactive: 39.3%
20,CCc1ccccc1NC(=O)Cc1ccc(-n2c(C)nc3cccnc32)cc1,inactive: 4.93%
21,COc1ccc(OC)c(NC(=O)Cc2c(C(=O)O)[nH]c3ccc(Cl)cc23)c1,inactive: -4.85%

row,SMILES,activation
1,Cc1ccc(C2=Nc3ccccc3N(CC(=O)NCc3ccc(Cl)cc3)C(=O)C2)cc1C,inactive: -8.04%
2,COc1ccc(CNC(=O)c2ccc3c(c2)N(Cc2ccccc2F)C(=O)c2ccccc2S3=O)cc1 (stereo unspecified),inactive: -19.6%
3,CCOc1nc(NC(=O)NS(=O)(=O)Oc2cccc(F)c2)nc(-c2ccccc2)n1,inactive: 33.1%
4,CC(=O)Nc1nonc1-c1nnc(SCc2ccccc2C)n1C,inactive: -11.4%
5,O=C(CSc1oc(-c2ccccc2)nc1S(=O)(=O)c1ccc(Br)cc1)NC1CCCCC1,inactive: -14.8%
6,Cc1cccc(CSc2nc3cccnc3n2Cc2ccc(C(=O)NCc3cccs3)cc2)c1,inactive: -21.2%
7,O=C(c1ccc(Cl)cc1)N1CCCCC1CCN1CCOCC1 (stereo unspecified),inactive: -11%
8,Cc1ccc(C)c(N2CCN(C(=O)c3cc4c(=O)n(Cc5cccnc5)ccc4nc3C)CC2)c1,inactive: -9.93%
9,COc1ccc(NC(=O)CSc2nc3ccccc3n2CC(=O)N2CCCC(C)C2)cc1 (stereo unspecified),inactive: -7.54%
10,Cc1ccc(NC(=O)c2cc3c(Cl)nc4ccc(C)cc4c3s2)c(Cl)c1,inactive: -3.16%
11,CCn1c(=O)c2cc(C(=O)Nc3cc(C)c(Cl)cc3OC)sc2c2ccccc21,inactive: -7.64%
12,Cc1cccc(C(=O)Nc2c(-c3ccc(F)cc3)nc3ccccn23)c1,inactive: 18.7%
13,Cc1cc(C)n(-c2nc3cc(Cl)c(Cl)cc3nc2Nc2ccc(F)cc2C)n1,inactive: -0.045%
14,COc1ccc(CNC(=O)c2cc(-c3cccs3)nc3ccccc23)c(OC)c1,inactive: -0.909%
15,CC(=O)N(Cc1cccnc1)c1nc2c(C)cc(C)cc2s1,inactive: -18.5%
16,CCOc1ccccc1N1CC(c2nc3ccccc3n2CCOc2ccc(OC)cc2)CC1=O (stereo unspecified),active: 79.6%
17,CCOC(=O)c1sc(NC(=O)c2nc3ncccn3n2)c(C(=O)OC(C)C)c1C,inactive: -2.57%
18,Cc1nnc(N2CCCC(C(=O)Nc3ccccc3C(F)(F)F)C2)c2nn(-c3ccccc3)c(C)c12 (stereo unspecified),inactive: -4.94%
19,Cc1ccc(NS(=O)(=O)c2ccc3[nH]c4c(c3c2)CCCC4)c(C)c1,inactive: 35.9%
20,CC1CCc2c(sc3nnn(Cc4ccccc4)c(=O)c23)C1 (stereo unspecified),inactive: -4.07%
21,Cc1cc(C)cc(NC(=O)C2CCCN2S(=O)(=O)c2ccc3c(c2)C(C)(C)C(=O)N3C)c1 (stereo unspecified),inactive: -28.5%

row,SMILES,activation
1,CCOC(=O)c1ccc(NC(=O)c2ccc3c(c2)c(C)c(C)n3Cc2ccc(F)cc2)cc1,inactive: -7.82%
2,COc1ccccc1NC(=O)c1oc2ccccc2c1NC(=O)c1c(F)cccc1F,inactive: -1.59%
3,CCOC(=O)C1(C)C=C(Nc2ccc(OC)cc2)C(=O)N1c1ccccc1 (stereo unspecified),inactive: -9.74%
4,COc1ccc(Cn2cc(C(=O)c3ccc(Cl)cc3)c(=O)c3cc4c(cc32)OCO4)cc1,inactive: 9.58%
5,Cc1cc(C)c(Cn2c3ccccc3c3cnn(CC(=O)NC4CCCCCC4)c(=O)c32)c(C)c1,inactive: 3.27%
6,CC(C)(Sc1cc(C(C)(C)C)c(O)c(C(C)(C)C)c1)Sc1cc(C(C)(C)C)c(O)c(C(C)(C)C)c1,inactive: -2.32%
7,O=C(Nc1cccc(Cl)c1Cl)c1cc(S(=O)(=O)N2CCC3(CC2)OCCO3)ccc1F,inactive: -12.9%
8,COc1cc(OC)cc(C(=O)Nc2ccc(S(=O)(=O)N3CCCCC3c3cccnc3)cc2)c1 (stereo unspecified),inactive: -18.4%
9,Cc1ccc(-n2nc3c(N4CCC(C(=O)N5CCC(C)CC5)CC4)nnc(C)c3c2C)cc1,inactive: 2.07%
10,COC(=O)c1cc2oc3ccccc3c2n1Cc1nc(-c2cccc(Cl)c2)oc1C,inactive: 2.61%
11,CCc1ccc(Nc2nn3c(=O)c4cc5c(cc4nc3s2)OCO5)cc1,inactive: 2.21%
12,CC1=C(C(=O)Nc2cccnc2)C(c2cccc(O)c2)n2nc(SCc3ccccc3)nc2N1 (stereo unspecified),inactive: -11.3%
13,CCCn1c(=O)n(-c2cc(Cl)c(OC)cc2OC)c(=O)c2c3c(sc21)CN(C(C)=O)CC3,inactive: -45%
14,Cc1cc(C)c(Cn2c(CCNC(=O)c3ccco3)nc3ccccc32)c(C)c1,active: 68.2%
15,CCn1cc(CCC(=O)NCc2ccc(F)cc2)c2ccccc21,inactive: -18.2%
16,Cc1ccc([C@H]2Nc3ccc(S(=O)(=O)Nc4cccc(Cl)c4C)cc3[C@H]3C=CC[C@H]32)cc1,inactive: -25.9%
17,Cc1ccc(Nc2nnc(-c3ccc(C)c(S(=O)(=O)N4CCN(C)CC4)c3)c3ccccc23)c(C)c1,inactive: -4.31%
18,CCCN(C(=O)c1nn(-c2ccc(OC)c(Cl)c2)c(=O)c2c1c1ccccc1n2C)c1ccccc1F,inactive: -6.61%

# — PubChem BioAssay AID1346428 (National Center for Advancing Translational Sciences (NCATS), 2018)
